# Inconclusive results, whose numbers are uncertain, are shown with a selection of clear calls. Potencies of inconclusive entries are doubtful fits and often do not repeat. Activity calls are given as the source filed them. Calls come from the whole dose curve; as a rule, active = well fitted cell-killing curve with a large enough effect; inconclusive = small, poorly fitted or top-dose-only effect, or effect the other way; inactive = no such curve, though single readings can be large or run the other way.
# Columns and labels:
# [1] = Viability qHTS for spleen associated tyrosine kinase inhibitor (SYKi) naive MV4-11 cells (AID 1963823); conditions: MV4-11 AML viability, CellTiter-Glo luminescence, 72 h; viability (% of control): at 45 µM (top of the series); note: nearly all actives have a fitted effect of over 40% in size
# Summary of the method: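 SYKi-naive MV4-11 AML cells, 500 per well, were exposed to library compounds for 72 hr at 37 C, 5% CO2. Viability was then read by CellTiter-Glo luminescence after 10 min at room temperature.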
# [2] = Viability qHTS for spleen associated tyrosine kinase inhibitor (SYKi) drug resistant MV4-11 cells (AID 1963824); conditions: SYKi-resistant MV4-11 viability, CellTiter-Glo, 72 h; series mostly up to 45 µM; note: nearly all actives have a fitted effect of over 35% in size
# Summary of the method: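 CellTiter-Glo luminescence, read 10 min after reagent addition, reports viability after a 72 hr compound exposure. Cells are an MV4-11 line made resistant to SYK inhibition, seeded at 500 per well onto compound-containing plates.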
# Potency is the fitted concentration of half-maximal effect; tags give direction and shape of the fitted curve.
Compound,Potency [1],Potency [2],viability (% of control) [1]
COC(=O)[C@@]1(c2ccc(C)cc2)C[C@H]1CN1CCC(O)(c2ccccc2)CC1,"inconclusive: 14.6 µM [cytotoxic, single point]","inconclusive: 16.4 µM [cytotoxic, partial curve, poor fit]",
O=C(OC[C@H]1O[C@H](O[C@]2(CO)O[C@H](CO)[C@@H](O)[C@@H]2O)[C@H](O)[C@@H](O)[C@@H]1O)c1ccccc1,inactive,inactive,
COc1ccc([C@@H]2CC(=O)c3c(O)cc(O[C@@H]4O[C@H](CO[C@@H]5O[C@@H](C)[C@H](O)[C@@H](O)[C@H]5O)[C@@H](O)[C@H](O)[C@H]4O)cc3O2)cc1O,"inconclusive: 11.8 µM [cytotoxic, full curve, poor fit]",active: 8.33 µM,
COc1cccc(OC)c1-c1cc(C(=O)N[C@@H](CC(C)C)C(=O)O)nn1-c1ccnc2cc(Cl)ccc12,"inconclusive: 29.1 µM [cytotoxic, single point]","inconclusive: 20.6 µM [cytotoxic, single point]",
COc1ccc([C@H](Cc2ccncc2)c2ccccc2)cc1OC1CCCC1,"inconclusive: 20.6 µM [cytotoxic, partial curve]","inconclusive: 23.1 µM [cytotoxic, partial curve]",
CC1=C(c2ccc(NC(=O)c3c(F)cccc3F)cc2)CN(c2nccs2)CC1,"inconclusive: 10.3 µM [cytotoxic, partial curve]",active: 2.59 µM,
CC(O)CN(CCN(CC(C)O)CC(C)O)CC(C)O (centres undefined),inactive,inactive,
CC(C)CC(NC(=O)OCc1ccccc1)C(=O)NC(CC(C)C)C(=O)NC(CCC(=O)O)C(=O)Nc1ccc2ccccc2c1 (centres undefined),"inconclusive: 20.6 µM [cytotoxic, partial curve]","inconclusive: 16.4 µM [cytotoxic, single point]",
C/C=C1/[C@H](O[C@@H]2O[C@H](CO)[C@@H](O)[C@H](O)[C@H]2O)OC=C(C(=O)OC)[C@H]1CC(=O)OCCc1ccc(OC(=O)C[C@@H]2C(C(=O)OC)=CO[C@@H](O[C@@H]3O[C@H](CO)[C@@H](O)[C@H](O)[C@H]3O)/C2=C/C)cc1,,"inconclusive: 0.039 µM [cytotoxic, full curve, poor fit]",inactive: 67.3% [at 9.25 µM]
CC1CC(O)/C=C/C(O)C(O)CC(=O)Cc2c(Cl)c(O)cc(O)c2C(=O)O1 (centres undefined),"inconclusive: 11.4 µM [cytotoxic, partial curve]","inconclusive: 11.4 µM [cytotoxic, single point]",
Nc1ncnc2c([C@@H]3N[C@H](CO)[C@@H](O)[C@H]3O)c[nH]c12,"inconclusive: 16.4 µM [cytotoxic, partial curve]","inconclusive: 11.6 µM [cytotoxic, partial curve]",
CC1CC[C@]2(C(=O)O)CC[C@]3(C(=O)O)C(=CCC4[C@@]5(C)CC[C@H](OC6OC(C)C(O)C(OC7OC(CO)C(O)C(O)C7O)C6O)C(C)(C)C5CC[C@]43C)C2C1C (some centres undefined),inactive,inactive,
CCN1CCN(Cc2ccc(NC(=O)c3ccc(C)c(Oc4ncnc5[nH]c(C)cc45)c3)cc2C(F)(F)F)CC1,"inconclusive: 0.0731 µM [cytotoxic, full curve]","inconclusive: 0.103 µM [cytotoxic, full curve]",
CC(C)C1=CC2=CCC3[C@](C)(CCC[C@@]3(C)C(=O)O)C2CC1=O (some centres undefined),"inconclusive: 10.1 µM [cytotoxic, partial curve, poor fit]","inconclusive: 11.4 µM [cytotoxic, partial curve, poor fit]",
C=CCC1=C[C@]2(OC)[C@H](C)[C@@H](c3ccc4c(c3)OCO4)O[C@]2(OC)CC1=O,"inconclusive: 11.4 µM [cytotoxic, partial curve]","inconclusive: 12.8 µM [cytotoxic, partial curve]",
[O-][n+]1ccccc1SSc1cccc[n+]1[O-],"inconclusive: 0.0517 µM [cytotoxic, full curve, poor fit]","inconclusive: 0.058 µM [cytotoxic, full curve, poor fit]",
CC(CNC1CCCCC1)OC(=O)c1ccccc1 (centres undefined),"inconclusive: 26.6 µM [cytotoxic, single point]",inactive,

# From PubChem BioAssay (NCATS)
